This note sets out measurements from the RNAGym collection of RNA variant scans (doi:10.7554/elife.90254).

The chains are these.
B1: LINE1-mini (parent)
chain: GGCAGAGCUCAACACAGCGUGGCAAAGUGGCUGUGGCUAGACUGCC

The source gives no read counts; variants with many changes may rest on few reads.

The variants in the data set derive from B1. The experiment in a line: self-cleavage, relative activity (ratio to wild type); higher = more cleavage; in vitro, sequencing; the parent is a self-cleaving ribozyme.
Take GGCAGAGCUCAACACAGCGUGGCGGAGUGCCUGUGGCUAGACUGUU: the self-cleavage turned out to be 0.27.
The same measure for GGCAGAGCUCAACACAGCGUGGCUAAGUGGCUGUUGGUAGACUGCC: 0.04.
With GGCAGAGCUCAACACAGCGUGGCACAGAGGCUGGGUCUAGACUUCC the figure was 0.04; with GGCAGAGCUCAACACAGCGUGGCCAAGACGCUGUGGCUAGACUGAC, 0.76.
The same measure for GGCAGAGCUCAACACAGCGUGGCAGAGUGGCUGUGGCUGCACUGCC: 0.02; for GGCAGAGCUCAACACAGCGUGGCGAAGUGGCUGAGGCUUUACUGCC: 0.02.
GGCAGAGCUCAACACAGCGUGGCUAAGAGGCAGUGUCUAGACUGCC: the self-cleavage worked out at 0.06.
The same measure for GGCAGAGCUCAACACAGCGUGGCUAAGUGUCUGUGUCUAGACUGCA: 0.07.
The same measure for GGCAGAGCUCAACACAGCGUGGCAGUGUGGUUGUGGCUAGAUUGCC: 0.08; for GGCAGAGCUCAACACAGCGUGGCUAAGUGGCUGGGGCUAUACAGAC: 0.02; for GGCAGAGCUCAACACAGCGUGGCGAAGUGGUUGUGGCUAGACAGCC: 0.07.
The same measure for GGCAGAGCUCAACACAGCGUGGCACAGUUACUGUGGCUAGACUGCC: 0.13; for GGCAGAGCUCAACACAGCGUGGCGAAGUGGCUGUGCCUAGACUCCC: 0.1.
For GGCAGAGCUCAACACAGCGUGGCUAAGUGACUGUGGCUAGACUGAC, the self-cleavage is 0.5.
With GGCAGAGCUCAACACAGCGUGGCGAAGUGGCUGUGGCUAGACUUUC the figure was 0.17; with GGCAGAGCUCAACACAGCGUGGCUAAGUUGCUGUGCCUAGACUGCC, 0.37.
With GGCAGAGCUCAACACAGCGUGGCAGAAUGGCUGUGUCUAGUCUGCC the figure was 0.03.
The same measure for GGCAGAGCUCAACACAGCGUGGCACAGAGGCUGUGGGUAGAAUGCC: 0.22.
In the case of GGCAGAGCUCAACACAGCGUGGCUAAGUGGCUGUGACUAGAUUGCC, the self-cleavage amounted to 0.33.
The same measure for GGCAGAGCUCAACACAGCGUGGCACAGUAGCUGUGGCUAGAUUGCC: 0.39; for GGCAGAGCUCAACACAGCGUGGCACAAUGGAUGUGGCUAGACUGUC: 0.16.
With GGCAGAGCUCAACACAGCGUGGCAGAGUGGGUGUGUCUAGACUGCC the figure was 0.02; with GGCAGAGCUCAACACAGCGUGGCCAAGUGGCCGUGGCUCGACUGCC, 0.05.
On to GGCAGAGCUCAACACAGCGUGGCAGAGUAGUUUUGGCUAGACUGCC, for which the self-cleavage came to 0.11.
The same measure for GGCAGAGCUCAACACAGCGUGGCGAAGUGGUUGUGGCUAGACUUCC: 0; for GGCAGAGCUCAACACAGCGUGGCCAAGUGGCUGUGGUUAGAAUGCC: 0.08.
With GGCAGAGCUCAACACAGCGUGGCACAGUGGCUGUGGCUACACUGCU the figure was 0.11; with GGCAGAGCUCAACACAGCGUGGCCAAAUGGCAGUGGCUAGACUGCA, 0.03.
With GGCAGAGCUCAACACAGCGUGGCUGAGUGGCUGUGGCUAGGCUUCC the figure was 0.07; with GGCAGAGCUCAACACAGCGUGGCGAAGUUCCUGUGGCUUGACUGCC, 0.03.
As to GGCAGAGCUCAACACAGCGUGGCAGAGUCGCUGUGGCUCGACUGCC, the self-cleavage was found to be 0.12.
With GGCAGAGCUCAACACAGCGUGGCGAAGUGCUUGUGGCUAGACUGCC the figure was 0.55; with GGCAGAGCUCAACACAGCGUGGCGAUGUUGCUGUGGCUAGACUGCC, 0.45.
GGCAGAGCUCAACACAGCGUGGCAGAGUGGCUGUCGCUAUACUGCC: the self-cleavage worked out at 0.02.
The same measure for GGCAGAGCUCAACACAGCGUGGCAGAGUGGCUGUCGCUAAACUGCC: 0.01.
The same measure for GGCAGAGCUCAACACAGCGUGGCGAAGGGGCUGAUGCUAGACUACC: 0.03; for GGCAGAGCUCAACACAGCGUGGCCAAGUGGCUUUAGCUAGACAGGC: 0.06.
As for GGCAGAGCUCAACACAGCGUGGCUAAGUAGCUGUGUCUAGACUGCA, the self-cleavage is 0.01.
Consider GGCAGAGCUCAACACAGCGUGGCACAGUGGCUGUGUCUAGAAUGAC, for which the self-cleavage worked out at 0.04.
With GGCAGAGCUCAACACAGCGUGGCCAAGUGCCUGUGGCUAGAAUGCC the figure was 0.02.
With GGCAGAGCUCAACACAGCGUGGCUAAGACCCUGUGGCUAGCCUGCC the figure was 0.03.
The same measure for GGCAGAGCUCAACACAGCGUGGCCAAGUGCCCGUGGCUAGACUGCC: 0.11; for GGCAGAGCUCAACACAGCGUGGCUAAGUGGCUGUGGCGAUACUGCC: 0.07.
Turning to GGCAGAGCUCAACACAGCGUGGCCAAGGGGCUGUGGCUAGAAUUCC, the self-cleavage worked out at 0.02.
The same measure for GGCAGAGCUCAACACAGCGUGGCCAAGUGGCUAUGGCUUGACGGUC: 0.01; for GGCAGAGCUCAACACAGCGUGGCUAAAUGGCUGUGGCUAGAGUGUC: 0.1; for GGCAGAGCUCAACACAGCGUGGCUAAGUGACUGUGGCUACACUGCC: 0.14.
Take GGCAGAGCUCAACACAGCGUGGCGAAGUGGCUGUGGCAUGACUCCC: the self-cleavage stood at 0.01.
With GGCAGAGCUCAACACAGCGUGGCACACUGGCUGUGGCUAGACUGCA the figure was 0.46; with GGCAGAGCUCAACACAGCGUGGCGAAGUGGCUCCGGCUAGGCUGAC, 0.04.
The same measure for GGCAGAGCUCAACACAGCGUGGCAGUGUGGCUGUGGCUUGACUGCC: 0.24; for GGCAGAGCUCAACACAGCGUGGCGAAGUUGCUGUGGCUAUACUGCC: 0.17; for GGCAGAGCUCAACACAGCGUGGCCAACUGGCUGUGGCUAGACUGAC: 0.12.
With GGCAGAGCUCAACACAGCGUGGCCAAGUGGCUGUGGCAAGACGGCC the figure was 0; with GGCAGAGCUCAACACAGCGUGGCAGUGUGGCUGUUGCUAGACUGCC, 0.09; with GGCAGAGCUCAACACAGCGUGGCAGAGUUUCUGUGGCUAGACUGCC, 1.55.
